Reference: a collection of fitness landscapes (doi:10.1126/science.1257360)
The list shows a part of the results.

B1: PhoQ; a variant is named by its letters at X, in order, P23837 (parent)
chain: MKKLLRLFFPLSLRVRFLLATAAVVLVLSLAYGMVALIGYSVSFDKTTFRLLRGESNLFYTLAKWENNKLHVELPENIDKQSPTMTLIYDENGQLLWAQRDVPWLMKMIQPDWLKSNGFHEIEADVNDTSLLLSGDHSIQQQLQEVREDDDDAEMTHSVAVNVYPATSRMPKLTIVVVDTIPVELKSSYMVWSWFIYVLSANLLLVIPLLWVAAWWSLRPIEALAKEVRELEEHNRELLNPATTRELTSLVRNLNRLLKSERERYDKYRTTLTDLTHSLKTPLXXLQXXLRSLRSEKMSVSDAEPVMLEQISRISQQIGYYLHRASMRGGTLLSRELHPVAPLLDNLTSALNKVYQRKGVNISLDISPEISFVGEQNDFVEVMGNVLDNACKYCLEFVEISARQTDEHLYIVVEDDGPGIPLSKREVIFDRGQRVDTLRPGQGVGLAVAREITEQYEGKIVAGESMLGGARMEVIFGRQHSAPKDE

Variants of: B1
Assay: enrichment ratio after two sorts for PhoP signalling (ratio (wild type AVST 3.29)); higher = more functional
Details: with PhoP (E. coli)

| Variant | enrichment ratio |
| --- | --- |
| RWIG | ≤ 0.25 |
| ELCK | 1.28 |
| SKPG | ≤ 0.25 |
| YIGH | 0.76 |
| VPLV | ≤ 0.25 |
| MDDQ | ≤ 0.25 |
| IMPN | ≤ 0.25 |
| WMLP | ≤ 0.25 |
| PEGS | ≤ 0.25 |
| MFAV | ≤ 0.25 |
| SEIS | 8.01 |
| HVRL | ≤ 0.25 |
| IKLT | ≤ 0.25 |
| AGMS | 3.53 |
| DMQI | ≤ 0.25 |
| NWNL | ≤ 0.25 |
| LMHQ | ≤ 0.25 |
| LFGI | ≤ 0.25 |
| SKKI | ≤ 0.25 |
| EWSW | ≤ 0.25 |
| TLWV | ≤ 0.25 |
| EQFM | ≤ 0.25 |
| LACF | ≤ 0.25 |
| DHTF | ≤ 0.25 |
| QNVF | ≤ 0.25 |
| REKR | ≤ 0.25 |

| Variant | enrichment ratio |
| --- | --- |
| HFQV | ≤ 0.25 |
| NVYW | ≤ 0.25 |
| GPYH | ≤ 0.25 |
| DWGP | ≤ 0.25 |
| VKKM | ≤ 0.25 |
| SKNV | ≤ 0.25 |
| FLTP | ≤ 0.25 |
| VRQA | ≤ 0.25 |
| GHGD | ≤ 0.25 |
| SSSA | 9.48 |
| VGCL | 4.33 |
| ELAG | ≤ 0.25 |
| FGMC | 4.08 |
| HNYG | ≤ 0.25 |
| VLPC | ≤ 0.25 |
| DYFT | ≤ 0.25 |
| MTKL | ≤ 0.25 |
| TAKC | ≤ 0.25 |
| KDMN | ≤ 0.25 |
| FCLM | 12.7 |
| EHGT | ≤ 0.25 |
| CTFS | ≤ 0.25 |
| ECYS | ≤ 0.25 |
| RVPI | ≤ 0.25 |
| VDCA | ≤ 0.25 |
| IMDM | ≤ 0.25 |

| Variant | enrichment ratio |
| --- | --- |
| TTTL | 13.4 |
| SDDE | ≤ 0.25 |
| YQTS | ≤ 0.25 |
| IQCN | ≤ 0.25 |
| VMWA | ≤ 0.25 |
| SKAK | ≤ 0.25 |
| TSQC | 14.5 |
| YWGI | ≤ 0.25 |
| MIER | ≤ 0.25 |
| QEDR | ≤ 0.25 |
| EKLA | ≤ 0.25 |
| KHIT | ≤ 0.25 |
| AVCF | 10.1 |
| PMAN | ≤ 0.25 |
| LYIA | 0.422 |
| VGGD | ≤ 0.25 |
| MVYA | ≤ 0.25 |
| DIVA | ≤ 0.25 |
| FECI | 3.72 |
| VAPM | ≤ 0.25 |
| VRHG | ≤ 0.25 |
| VHLL | 0.26 |
| LQWR | ≤ 0.25 |
| NRVE | ≤ 0.25 |
| FRIS | ≤ 0.25 |
| PYKL | ≤ 0.25 |

| Variant | enrichment ratio |
| --- | --- |
| SVCK | 9.8 |
| YYSE | ≤ 0.25 |
| GVKS | ≤ 0.25 |
| FYMS | ≤ 0.25 |
| NWHQ | ≤ 0.25 |
| MMCV | 4.31 |
| RKAG | ≤ 0.25 |
| NSPD | 1.34 |
| FYGS | ≤ 0.25 |
| MRGK | ≤ 0.25 |
| YWEM | ≤ 0.25 |
| ENGN | ≤ 0.25 |
| WFNF | ≤ 0.25 |
| FRYG | ≤ 0.25 |
| LQSN | ≤ 0.25 |
| RVSL | ≤ 0.25 |
| IWNW | ≤ 0.25 |
| FCFE | ≤ 0.25 |
| PPHM | ≤ 0.25 |
| SIQQ | 5.83 |
| VRDT | ≤ 0.25 |
| VNFF | ≤ 0.25 |
| FDKH | ≤ 0.25 |
| ICEK | ≤ 0.25 |
| GLMH | ≤ 0.25 |
| KTWY | ≤ 0.25 |

| Variant | enrichment ratio |
| --- | --- |
| NCII | ≤ 0.25 |
| QIDW | ≤ 0.25 |
| TDKY | ≤ 0.25 |
| NCIS | ≤ 0.25 |
| DGLT | ≤ 0.25 |
| NDYS | ≤ 0.25 |
| FLAQ | ≤ 0.25 |
| KHRI | ≤ 0.25 |
| SFRD | ≤ 0.25 |
| GMHR | ≤ 0.25 |
| EMYN | ≤ 0.25 |
| AVRW | ≤ 0.25 |
| TIRC | ≤ 0.25 |
| PHDY | ≤ 0.25 |
| LGFL | 6.03 |
| TRPN | ≤ 0.25 |
| IWAH | ≤ 0.25 |
| NIIW | ≤ 0.25 |
| YCWK | ≤ 0.25 |
| YIHV | ≤ 0.25 |
| LMNV | ≤ 0.25 |
| FQSV | ≤ 0.25 |
| KPWE | ≤ 0.25 |
| FVNN | ≤ 0.25 |
| TQKT | ≤ 0.25 |
| FGME | ≤ 0.25 |

| Variant | enrichment ratio |
| --- | --- |
| IMKW | ≤ 0.25 |
| FSKA | ≤ 0.25 |
| TCIP | ≤ 0.25 |
| PCIV | ≤ 0.25 |
| ENCV | ≤ 0.25 |
| SLND | ≤ 0.25 |
| HRLR | ≤ 0.25 |
| WKQA | ≤ 0.25 |
| YITG | 0.471 |
| NNWG | ≤ 0.25 |
| LHVV | ≤ 0.25 |
| GEYF | 10.1 |
| DHWS | ≤ 0.25 |
| GMQQ | ≤ 0.25 |
| SMDP | ≤ 0.25 |
| FRAG | ≤ 0.25 |
| AIVS | 12.6 |
| IIFC | ≤ 0.25 |
| GTRY | ≤ 0.25 |
| RYVQ | ≤ 0.25 |
| KHYQ | ≤ 0.25 |
| YSWL | ≤ 0.25 |
| RYSC | ≤ 0.25 |
